About 330 (14%) of roughly 2,300 compounds showed activity.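 The calls were made as follows: active = median modified Z-score above 1.96; inactive = 1.96 or below.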 Only a part is listed here, and it is no random draw.
test system: HepG2 Srxn1-GFP reporter cells (+30 nM CDDO-Me); test: Srxn1-GFP intensity median modified Z-score relative to plate median; higher = stronger NRF2 / oxidative stress reporter activation, active = hit call of the paper; settings: 10 µM; exposure time: 24h
In short: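 The modified Z-score of GFP intensity was computed per plate, and the median over replicates is reported. HepG2 Srxn1-GFP BAC reporter cells in three replicate plates were treated for 24 h with compound at 10 μM plus an NRF2 activator at 30 nM (≤0.1% DMSO). Per-cell cytoplasmic GFP came from confocal images, excluding those with under 100 cells, and scaling used 1.4826 × median absolute deviation.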

| Structure (SMILES) | Srxn1-GFP intensity median modified Z-score |
| --- | --- |
| CO[C@]12C[C@@H](COC(=O)c3cncc(Br)c3)CN(C)[C@@H]1Cc1cn(C)c3cccc2c13 [euspeclibcmpd391] | inactive: -0.832 |
| C[C@]12C=CC(=O)CC1=CCC1C2CC[C@]2(C)C(=O)CCC12 (stereo partly drawn) [euspeclibcmpd1581] | inactive: -0.0301 |
| CC(C)(C)NCC(O)c1ccccc1Cl (stereo not drawn) [euspeclibcmpd2095] | inactive: -0.294 |
| CN(C)C(=S)SSC(=S)N(C)C [euspeclibcmpd571] | inactive: 1.95 |
| CC(C)C[C@H](CN)CC(=O)O [euspeclibcmpd622] | inactive: -0.272 |
| COc1cc2c(cc1-c1cc3cc4ccoc4cc3oc1=O)OCO2 [euspeclibcmpd1721] | inactive: 0.147 |
| COc1cc2c(cc1OC)C1C(=O)c3ccc4oc(C(C)C)cc4c3O[C@@H]1CO2 (stereo partly drawn) [euspeclibcmpd1384] | inactive: 0.895 |
| CN1C2C[C@H](OC(=O)C(CO)c3ccccc3)C[C@H]1[C@H]1OC21 (stereo partly drawn) [euspeclibcmpd266] | inactive: -0.44 |
| CCC(N)C(O)c1ccc(O)c(O)c1 (stereo not drawn) [euspeclibcmpd646] | inactive: -0.33 |
| C[C@]12CC[C@H](O)CC1=CCC1C2CC[C@]2(C)C(=O)CC[C@@H]12 (stereo partly drawn) [euspeclibcmpd1201] | inactive: -0.236 |
| Oc1cc(Cl)ccc1Oc1ccc(Cl)cc1Cl [euspeclibcmpd800] | active: 3.85 |
| CC1(C)C(C=C(Cl)Cl)C1C(=O)OC(C#N)c1cccc(Oc2ccccc2)c1 (stereo not drawn) [euspeclibcmpd1141] | inactive: -0.358 |
| COc1ccc(Cc2nccc3cc(OC)c(OC)cc23)cc1OC [euspeclibcmpd226] | inactive: 0.774 |
| O=C(N/N=C/c1ccc([N+](=O)[O-])o1)c1cc([N+](=O)[O-])cc([N+](=O)[O-])c1O [euspeclibcmpd462] | active: 3.58 |
| COC(=O)C1=CCCN(C)C1 [euspeclibcmpd336] | inactive: -0.362 |
| CC1(C)C(=O)C=C[C@@]2(C)C1C[C@@H](O)[C@]1(C)C2CC[C@@]2(C)[C@H](c3ccoc3)OC(=O)C3O[C@]321 (stereo partly drawn) [euspeclibcmpd1629] | active: 32.4 |
| CCn1cc(C(=O)O)c(=O)c2cc3c(cc21)OCO3 [euspeclibcmpd954] | inactive: -0.411 |
| NCCc1ccc(O)cc1 [euspeclibcmpd1322] | inactive: -0.212 |
| CN(C)C(=O)Oc1cc(OC(=O)N(C)C)cc(C(O)CNC(C)(C)C)c1 (stereo not drawn) [euspeclibcmpd1204] | inactive: -0.0421 |
| COc1ccc2c3c([nH]c2c1)C(C)=NCC3 [euspeclibcmpd2276] | active: 66 |
| C=C(C)[C@H]1Cc2c(ccc3c2O[C@@H]2COc4cc(OC)c(OC)cc4C2C3=O)O1 (stereo partly drawn) [euspeclibcmpd1688] | active: 63.1 |
| C=C[C@H]1C[N@]2CC[C@H]1C[C@@H]2[C@H](O)c1ccnc2ccccc12 [euspeclibcmpd2140] | inactive: 0.321 |
| CCC(C(=O)[C@H](C)[C@@H](O)[C@H](C)[C@@H]1O[C@@H]([C@@H](CC)C(=O)O)CC[C@@H]1C)[C@H]1OC2(C=C[C@@H](O)[C@]3(CC[C@@](C)([C@H]4CC[C@](O)(CC)[C@H](C)O4)O3)O2)[C@H](C)C[C@@H]1C (stereo partly drawn) [euspeclibcmpd2084] | active: 6.06 |
| O=[N+]([O-])c1cc([As](=O)(O)O)ccc1O [euspeclibcmpd2449] | active: 14.6 |

| Structure (SMILES) | Srxn1-GFP intensity median modified Z-score |
| --- | --- |
| C[C@H]1CC[C@]2(NC1)OC1CC3C4CCC5C[C@@H](O[C@@H]6O[C@H](CO)[C@H](O[C@H]7O[C@H](CO)[C@@H](O)[C@H](O[C@@H]8OC[C@@H](O)[C@H](O)[C@H]8O)[C@H]7O[C@@H]7O[C@H](CO)[C@@H](O)[C@H](O)[C@H]7O)[C@H](O)[C@H]6O)CC[C@]5(C)C4CC[C@]3(C)C1[C@@H]2C (stereo partly drawn) [euspeclibcmpd480] | active: 71.3 |
| CN(C)Cc1c[nH]c2ccccc12 [euspeclibcmpd2039] | inactive: 0.0259 |
| CC(=O)O[C@@H]1CC2C(C)(C)C(=O)C=C[C@]2(C)C2CC[C@]3(C)C(=CC(=O)O[C@H]3c3ccoc3)[C@@]21C (stereo partly drawn) [euspeclibcmpd1551] | active: 38.8 |
| C=C/C=C\CC1=C(C)C(OC(=O)C2[C@@H](C=C(C)C)C2(C)C)CC1=O (stereo partly drawn) [euspeclibcmpd1257] | active: 2.3 |
| C=C(C)[C@@H]1[C@H]2OC(=O)[C@@H]1[C@]1(O)C[C@H]3O[C@]34C(=O)O[C@H]2[C@]14C [euspeclibcmpd1351] | active: 17.9 |
| CC1OC(OC2C=C3CCC4C(CCC5(C)C(c6ccc(=O)oc6)CCC45O)C3(C)CC2)C(O)C(O)C1O (stereo not drawn) [euspeclibcmpd1931] | active: 2.81 |
| NNCc1ccccc1 [euspeclibcmpd1327] | inactive: 0.32 |
| CC1=CCC[C@@H]2C1(C)CCC(C)[C@@]2(C)CC/C(C)=C/Cn1c[n+](C)c2c(=N)nc[nH]c21 (stereo partly drawn) [euspeclibcmpd1491] | active: 13.7 |
| CC(=O)OC1CN2CCC1CC2 (stereo not drawn) [euspeclibcmpd385] | inactive: -0.0983 |
| CC(=O)OC1CC(OC(C)=O)C2(C)C(CC(OC(C)=O)C3(C)C2CCC2(C)C(c4ccoc4)C(=O)C4OC423)C1(C)C (stereo not drawn) [euspeclibcmpd1943] | inactive: 1.55 |
| C[N+](C)(C)CCCCCCCCCC[N+](C)(C)C [euspeclibcmpd902] | active: 4.92 |
| C[C@@H]([C@H](O)c1ccccc1)N(C)C [euspeclibcmpd1255] | inactive: 0.2 |
| CCCN1C[C@H](CSC)C[C@@H]2c3cccc4[nH]cc(c34)C[C@H]21 [euspeclibcmpd1280] | inactive: -0.0876 |
| COc1cc([C@@H]2c3cc4c(cc3[C@H](O)[C@H]3COC(=O)C23)OCO4)cc(OC)c1OC (stereo partly drawn) [euspeclibcmpd2060] | active: 27.1 |
| COc1cc([C@@H]2c3cc4c(cc3[C@H](O)[C@H]3COC(=O)C23)OCO4)cc(OC)c1OC (stereo partly drawn) [euspeclibcmpd2203] | active: 11.5 |
| CC1=CC(=O)c2c(O)cccc2C1=O [euspeclibcmpd1444] | active: 67.7 |
| CC(C)N(CCC(C(N)=O)(c1ccccc1)c1ccccn1)C(C)C (stereo not drawn) [euspeclibcmpd802] | inactive: -0.08 |
| Cc1ccc(-c2nc3ccc(C)cn3c2CC(=O)N(C)C)cc1 [euspeclibcmpd758] | inactive: -0.989 |
| C[N+]1([O-])C2CCC1CC(OC(=O)C(CO)c1ccccc1)C2 (stereo not drawn) [euspeclibcmpd2322] | inactive: -0.247 |
| CC1=NCCc2c1[nH]c1cc(O)ccc21 [euspeclibcmpd2357] | active: 7.71 |
| O=C(COc1ccc2ccccc2c1)N1CCN(Cc2ccc3c(c2)OCO3)CC1 | active: 4.61 |
| C1CCc2nnnn2CC1 [euspeclibcmpd962] | inactive: 0.439 |
| CC(C)(O)[C@@H]1[C@H]2OC(=O)[C@@H]1[C@]1(O)C[C@H]3O[C@]34C(=O)O[C@H]2[C@]14C [euspeclibcmpd1439] | inactive: -0.455 |
| O=c1[nH]c2ccccc2n1CCCN1CCC(n2c(=O)[nH]c3cc(Cl)ccc32)CC1 [euspeclibcmpd111] | inactive: 0.232 |
